# Assay results from PubChem BioAssay AID1479 (National Center for Advancing Translational Sciences (NCATS), 2009).
# Hit rate of the full screen: of about 280,000 compounds, about 820 (0.29%) were called active. Inconclusive means that the source gave no clear call. Such entries were picked first, then a sample of the others. Calls follow the shape of the dose curve; as a rule, active = well fitted curve in either direction with a large enough effect; inconclusive = small, poorly fitted or top-dose-only effect; inactive = flat fitted curve, though single readings scatter. Potencies of inconclusive entries are left out as doubtful fits.
# Assay: Total Fluorescence Counterscreen for Inhibitors of the Interaction of Thyroid Hormone Receptor and Steroid Receptor Coregulator 2
# Conditions: TRb/SRC2 Texas Red total fluorescence interference; series mostly up to 106 µM
# Method in brief: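 Human TRβ ligand-binding domain (0.6 uM) and Texas Red SRC2 peptide (20 nM) in Tris buffer with 1 uM T3 and 5% DMSO were incubated with pinned compound for 5 hr at ambient temperature. Total fluorescence was computed as S + 2P (555/632 nm).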
# % is scaled to controls: 0 for no effect and ±100 for the full control effect; potency is read from the fitted curve at half-maximal effect; tags tell the direction and shape of the fitted curve or compound fluorescence and quenching.
SMILES,Potency,"fluorescence change, negative = quenching"
Cc1cccc(NC(=O)Cn2nnc(C(=O)Nc3ccc(F)c(Cl)c3)c2N)c1,"inconclusive [quencher, full curve]",–
COc1ccc(C2CC(=O)N(Cc3ccc(F)cc3)c3ccccc3S2)cc1 (stereo unspecified),"inconclusive [falling, full curve, poor fit]",–
CC(C)Cn1c(=O)c2sccc2n2c(CCCC(=O)NCCc3ccccc3)nnc12,inactive,–
CCN1CCN(c2cc3c(cc2F)c(=O)c(S(=O)(=O)c2ccc(OC)cc2)cn3CC)CC1,"inconclusive [quencher, full curve]",–
Cc1ccc(N2NC(C)(c3cccs3)NC2=S)cc1 (stereo unspecified),inactive,–
CCCCC1=CC2=CC(=O)C(C)(OC(=O)CC)C(=O)C2=CN1c1ccncc1 (stereo unspecified),–,inactive: -0.282% [at 11.2 µM]
Cc1nc(-c2ccc(Cl)cc2)sc1CCNC(=O)Cc1ccc(F)cc1,"inconclusive [falling, full curve, poor fit]",–
CCc1ccc(NC(=O)C(=O)NCC(c2cccnc2)N2CCN(Cc3ccccc3)CC2)cc1 (stereo unspecified),"inconclusive [falling, full curve, poor fit]",–
Cc1ccc(O)c(NC(=O)c2ccc(Br)c(S(=O)(=O)N3CCCCC3)c2)c1,"inconclusive [falling, partial curve, poor fit]",–
COCCNC(=O)CCc1c(C)nc2c(-c3ccc(F)cc3)c(C)nn2c1C,"inconclusive [falling, full curve, poor fit]",–
CC(OC(=O)c1ccc(F)cc1)C(=O)Nc1nc(-c2cccc([N+](=O)[O-])c2)cs1 (stereo unspecified),"inconclusive [quencher, full curve]",–
COc1cccc(NC(=O)Cn2nnc(-c3nc(-c4ccccc4)no3)c2N)c1,"inconclusive [falling, full curve, poor fit]",–
O=C(NCCC1=CCCCC1)c1ccc2c(c1)N(Cc1ccccc1)C(=O)CS2,inactive,–
CCOC(=O)C(C)(C)NS(=O)(=O)c1ccc(Cl)c([N+](=O)[O-])c1,"inconclusive [falling, partial curve, poor fit]",–
CCOC(=O)C1CCN(C2=C(NS(=O)(=O)c3ccc(Cl)cc3)C(=O)c3ccccc3C2=O)CC1,inactive,–
CC(C)(C)OC(=O)N1CCC(c2c(C(=O)N3CCN(c4ccccc4F)CC3)cnn2C(C)(C)C)CC1,"inconclusive [falling, full curve, poor fit]",–
CN1CCN(C(=O)c2cnn(-c3ccccc3)c2C2CCN(C(=O)OC(C)(C)C)CC2)CC1,"inconclusive [falling, full curve, poor fit]",–
Cc1ccc(-c2nc3ccccc3[nH]2)cc1NC(=O)COc1ccc(Cl)cc1Cl,"inconclusive [quencher, full curve]",–
O=C(O)c1ccc2c(c1)C(=O)/C(=C\c1ccco1)C2=O,"inconclusive [quencher, partial curve]",–
COc1ccc(OCC(=O)Nc2ccc(S(=O)(=O)N3CCN(C)CC3)cc2)cc1,"inconclusive [rising, single point]",–
COC(=O)c1cc2oc(C)cc2n1CC(=O)Nc1ccc(OC)c(OC)c1,"inconclusive [falling, full curve, poor fit]",–
c1ccc2c(c1)ncn2-c1ccc(-c2ccnc(-c3ccncc3)n2)cc1,"inconclusive [rising, single point]",–

SMILES,Potency,"fluorescence change, negative = quenching"
O=[N+]([O-])c1cccc2c[nH]nc12,"inconclusive [quencher, partial curve]",–
O=C(Cc1ccccc1)Nc1sc2c(c1C(=O)Nc1ccccc1Cl)CCCC2,"inconclusive [quencher, full curve]",–
Cc1cc(/C=C(\C#N)C(=O)Nc2ccccc2)c(C)n1-c1ccc(F)cc1,"inconclusive [quencher, full curve]",–
COC(=O)c1cc2sc(Cl)cc2n1Cc1nc(-c2ccccc2C)oc1C,"inconclusive [falling, full curve, poor fit]",–
CC(NC(=O)/C(=C/c1cccc([N+](=O)[O-])c1)NC(=O)c1ccco1)C(=O)O (stereo unspecified),"inconclusive [quencher, full curve]",–
COc1ccccc1C(=O)Nc1ccc(S(=O)(=O)Nc2nc(C)cc(C)n2)cc1,"inconclusive [falling, full curve, poor fit]",–
NC(=O)c1c(NC(=O)CSc2nnc(-c3ccco3)n2N)sc2c1CCCC2,"inconclusive [quencher, partial curve]",–
COc1cccc(CNC(=O)C2=C(C)C(=O)OC23CCCCCC3)c1,"inconclusive [quencher, full curve]",–
Cc1ccc(NC(=O)/C(=C\c2ccc([N+](=O)[O-])cc2)NC(=O)c2ccccc2)cc1,inactive,–
CC(=O)Nc1ccc(-c2csc(Nc3cccc(C)n3)n2)cc1,inactive,–
CCOC(=O)c1cc(S(=O)(=O)N(C)c2ccccc2)[nH]n1,"inconclusive [falling, full curve, poor fit]",–
N#C/C(=C/c1ccccc1Cl)c1nc(-c2cc3ccccc3oc2=O)cs1,"inconclusive [falling, partial curve, poor fit]",–
CCCCNC(=O)Cn1nc(N2CCN(c3ccccc3OC)CC2)ccc1=O,inactive,–
CCOc1ccc(C(c2c(O)cc(C)n(CCOC)c2=O)N2CCN(c3ccc(F)cc3)CC2)cc1 (stereo unspecified),inactive,–
O=C(CN1CCN(CC(=O)Nc2ccccc2F)CC1)Nc1ccc(Cl)c(C(F)(F)F)c1,inactive,–
CS/C(=N\S(=O)(=O)c1ccc(Cl)cc1)c1ccccc1,inactive,–
COc1ccc(Cc2nnc(NC(=O)Cc3cccs3)s2)cc1OC,"inconclusive [quencher, partial curve]",–
CC1=C(c2ccc(C)c(C)c2)S(=O)(=O)N=C1N1CCC(C(=O)N2CCCCC2)CC1,active: 562 µM [quencher],–
NC(=O)CCCCC(N)=O,inactive,–
Cc1oc(-c2ccccc2F)nc1CSCC(=O)NCCc1ccccc1,active: 0.126 µM [quencher],–
O=C(Nc1cc(S(=O)(=O)N2CCOCC2)ccc1N1CCCC1)c1ccc2c(c1)S(=O)(=O)c1ccccc1C2=O,inactive,–
Cc1oc(-c2ccc(Cl)cc2)cc1-c1nn2c(-c3ccoc3C)nnc2s1,"inconclusive [falling, single point]",–

SMILES,Potency,"fluorescence change, negative = quenching"
COC(=O)c1c(NC(=O)COC(=O)c2ccccc2O)sc2c1CCCCC2,"inconclusive [rising, single point]",–
Cc1cc(-c2nc3ncccc3o2)ccc1NC(=O)COc1cc(C)c(Cl)c(C)c1,"inconclusive [falling, full curve, poor fit]",–
O=C1NCC2=C1C(c1ccccc1)Nc1ccccc1N2 (stereo unspecified),inactive,–
O=C(COCc1cc(-c2cccs2)on1)Nc1cccc(O)c1,"inconclusive [quencher, full curve]",–
COCCCNC(=O)C1CCN(c2ncnc3c2nc2n3CCCCC2)CC1,"inconclusive [falling, full curve, poor fit]",–
COc1ccc(C(=O)Nc2cccc(-c3nc4cccnc4s3)c2C)c(OC)c1,active: 100 µM [quencher],–
Cc1cc(C)cc(NCCC#N)c1,"inconclusive [falling, full curve, poor fit]",–
Oc1c(Br)cc(C=Nc2ccc3nc(-c4ccccc4)[nH]c3c2)c(O)c1Br,"inconclusive [falling, single point]",–
CC1CCN(C2=NC(=O)/C(=C/c3cn[nH]c3-c3ccccc3)S2)CC1,"inconclusive [quencher, partial curve]",–
CC(=O)Nc1nonc1-c1nnc(SCc2ccc(C)cc2)n1C,"inconclusive [falling, full curve, poor fit]",–
Cn1cc(S(=O)(=O)c2cccc(Cl)c2)c(=O)c2cc(F)c(N3CCN(c4ccccc4)CC3)cc21,active: 158 µM [quencher],–
Nn1cnnc1N/N=C\c1ccc(-c2ccccc2[N+](=O)[O-])o1,inconclusive,–
Cc1ccccc1C(=O)OCc1cc(=O)n2nc(-c3cccs3)sc2n1,"inconclusive [quencher, full curve]",–
COc1c(C=O)c(O)cc2c1C(=O)c1ccccc1C2=O,"inconclusive [quencher, partial curve]",–
COc1cc(OC)c(NC(=O)Cn2c(=O)oc3cc(S(=O)(=O)N4CCCC4)ccc32)cc1Cl,inactive,–
CCc1ccc(-n2c(Cc3ccccc3)nnc2SCc2nc(-c3cccs3)no2)cc1,"inconclusive [falling, full curve, poor fit]",–
Cc1c(C2=CCN(S(=O)(=O)c3ccc(Br)cc3)CC2)c2ccccc2n1C,active: 28.2 µM [fluorescent],–
CCc1nn2c(=O)cc(COC(=O)c3ccco3)nc2s1,"inconclusive [quencher, full curve]",–
O=C(Cn1cnc2ccccc21)N/N=C/C(Br)=C/c1ccccc1,"inconclusive [falling, full curve, poor fit]",–
COc1ccc(-c2oc3ccccc3c(=O)c2OCC(=O)O)cc1,inactive,–
N#Cc1cc(O)c(-n2nnc3ccccc32)cc1C#N,inactive,–
CCN(CC)CCCNC(=O)c1nn(C)c2c1CS(=O)(=O)c1ccccc1-2,"inconclusive [quencher, partial curve]",–
